# Measurements from PubChem BioAssay AID504845 (National Center for Advancing Translational Sciences (NCATS), 2011).
# Out of some 390,000 compounds screened, about 150 (0.038%) were called active. The inconclusive results got no clear call from the source; some entries with a clear call stand among them for comparison. Calls come from the whole dose curve; as a rule, active = well fitted inhibition curve with a large enough effect; inconclusive = small, poorly fitted or top-dose-only effect; inactive = no such curve, though single readings can be large or run the other way. Where the call is inconclusive, the potency comes from a doubtful curve fit.
# Target: Regulator of G-protein signaling 4 (Homo sapiens) (UniProt P49798)
# Experiment: Inhibitors of Regulator of G Protein Signaling (RGS) 4: qHTS; note: nearly all actives have a fitted effect of over 75% in size
# Conditions: Transcreener GDP fluorescence polarization, RGS4-accelerated GTP hydrolysis; series mostly up to 114 µM
# Summary of the method: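 MLSMR compounds (23 nl, pin-transferred) preincubated 10 min at room temperature with a 500nM (2x) first reagent, then RGS4 at 900nM (2x) plus Transcreener GDP mix added; fluorescence polarization (620/688 nm) read before and after 90 min at 30 °C.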
# Potency is the fitted concentration of half-maximal effect; tags give direction and shape of the fitted curve.
# Chain of UniProt P49798 (P49798 whole entry, looked up): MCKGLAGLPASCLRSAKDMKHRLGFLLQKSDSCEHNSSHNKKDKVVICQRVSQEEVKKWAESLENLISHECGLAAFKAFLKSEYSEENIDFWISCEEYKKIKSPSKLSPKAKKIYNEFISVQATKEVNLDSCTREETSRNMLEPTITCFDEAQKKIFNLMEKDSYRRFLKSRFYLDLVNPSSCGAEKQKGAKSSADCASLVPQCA
row,Compound,Potency
1,COC(=O)C1=C(C(=O)OC)C(c2cc(Cl)ccc2O)c2sc(=O)[nH]c2S1 (configuration not stated),"inconclusive: 50.1 µM [inhibitor, partial curve, poor fit]"
2,COc1ccc(-c2cc(C(=O)NC(Cc3c[nH]c4ccccc34)C(=O)O)c(C)o2)cc1OC (configuration not stated),"inconclusive: 44.7 µM [inhibitor, partial curve, poor fit]"
3,CC1CC(C)(C)N(C(=O)CSc2ccc(-c3ccc(F)cc3)nn2)c2ccccc21 (configuration not stated),inactive
4,CCOc1ccccc1CNC(=O)c1ccc2nc(N3CCC(C)CC3)sc2c1,inactive
5,COc1ccc(C)cc1NC(=O)CCNS(=O)(=O)c1cccc(C(F)(F)F)c1,inactive
6,O=C(NCCc1ccc(Cl)cc1)c1ccc(Nc2nc3ccccc3n3nnnc23)cc1,inactive
7,O=C1C(=C2CCCCC2)SC(=S)N1Cc1ccco1,"inconclusive: 100 µM [inhibitor, partial curve, poor fit]"
8,CCOc1ccc(C(C)=O)cc1COC(=O)CNC(=O)C12CC3CC(CC(C3)C1)C2,inactive
9,CCOC(=O)c1ccc(N2C(=O)CC(N3CCN(C/C=C/c4ccccc4)CC3)C2=O)cc1 (configuration not stated),inactive
10,COc1ccc(-c2c3c(nc4sc(C(=O)Nc5ccccc5)c(N)c24)CCC3)cc1,"inconclusive: 89.1 µM [inhibitor, single point]"
11,C/C(CC(=O)NC12CC3CC(CC(C3)C1)C2)=N\NC(=O)c1cnccn1,"inconclusive: 39.8 µM [inhibitor, partial curve, poor fit]"
12,Nc1nc(-c2ccc(Br)s2)c(Br)s1,"inconclusive: 70.8 µM [inhibitor, partial curve, poor fit]"
13,COc1ccc(CNC(=O)c2sc3nc[nH]c(=O)c3c2C)cc1,inactive
14,O=C(O)CCc1nn2c3ccccc3n(Cc3ccccc3F)c2nc1=O,"inconclusive: 50.1 µM [inhibitor, partial curve, poor fit]"
15,COc1ccc(C(=O)NCC2(c3ccccc3)CCOCC2)cc1[N+](=O)[O-],"inconclusive: 39.8 µM [inhibitor, partial curve, poor fit]"
16,CCc1ccc(C(=O)CC2(O)C(=O)N(Cc3ccc(C)cc3)c3ccccc32)cc1 (configuration not stated),"inconclusive: 100 µM [inhibitor, partial curve, poor fit]"
17,Cc1ccc(-n2c(CCC(=O)O)ccc2-c2cccs2)cc1Cl,"inconclusive: 17.8 µM [inhibitor, full curve, poor fit]"
18,CCSc1nnc(-c2cccs2)o1,inactive
19,[O-]c1n[n+](-c2ccc(Cl)cc2)cc2ccccc12,"inconclusive: 31.6 µM [inhibitor, full curve, poor fit]"
20,Cc1ccc(-c2cn3nc(N4CCCC(C(=O)NCc5ccc(F)cc5)C4)sc3n2)cc1 (configuration not stated),"inconclusive: 50.1 µM [inhibitor, partial curve, poor fit]"
21,O=C(N/N=C/c1ccc(-c2ccccc2[N+](=O)[O-])o1)c1cccnc1,"inconclusive: 50.1 µM [inhibitor, partial curve, poor fit]"

row,Compound,Potency
1,CC(C)(C)c1cc(/C=C(\C#N)C(N)=S)cc(C(C)(C)C)c1O,active: 10.6 µM
2,CCC(=O)Oc1c(Sc2ccc(C)cc2)c(C)nn1-c1ccccc1,"inconclusive: 31.6 µM [inhibitor, partial curve, poor fit]"
3,Cc1cc(-c2ccccc2)nc2cc(C(N)=O)nn12,"inconclusive: 50.1 µM [inhibitor, partial curve, poor fit]"
4,COc1cc(CC(=O)NC(c2ccccc2)c2ccccc2)cc(OC)c1OC,"inconclusive: 44.7 µM [inhibitor, partial curve, poor fit]"
5,COc1ccc(/C=N/NC(=O)c2nn(-c3ccc(Cl)cc3)c(=O)c3c(N)scc23)cc1,"inconclusive: 100 µM [inhibitor, single point]"
6,CN(CC(=O)Nc1c(Cl)cccc1Cl)C(=O)Cc1ccc2c(c1)CCC2,"inconclusive: 20 µM [inhibitor, full curve, poor fit]"
7,Cc1ccc(C(C)C)c(OCCCn2ccnc2C)c1,"inconclusive: 89.1 µM [inhibitor, single point]"
8,Clc1ncccc1-c1nc2ccccc2s1,"inconclusive: 50.1 µM [inhibitor, partial curve, poor fit]"
9,CCOc1ccc(N2CC(C(=O)NCC(=O)Nc3ccc(F)c(F)c3F)CC2=O)cc1 (configuration not stated),inactive
10,Cc1nn(Cc2ccccc2)c2sc(C(=O)N3CCN(Cc4ccc5c(c4)OCO5)CC3)cc12,"inconclusive: 79.4 µM [inhibitor, single point]"
11,CC1CC(C)(C)CC2(C1)NC(=O)N(CC(=O)OCc1ccc(Br)cc1)C2=O (configuration not stated),"inconclusive: 89.1 µM [inhibitor, single point]"
12,CCC(C)(C)NC(=O)C(c1ccc(OC)cc1)N(C(=O)CCC(=O)Nc1cc(C)on1)C(C)(C)C (configuration not stated),inactive
13,CC(C)c1ccccc1NC(=O)CCc1nc2ccccc2s1,"inconclusive: 31.6 µM [inhibitor, full curve, poor fit]"
14,CCCc1nn2c(=O)cc(COC(=O)c3cccc(NC(=O)c4ccc(OCC)cc4)c3)nc2s1,inactive
15,S=C(Nc1ccc(Oc2ccccc2)cc1)NC1CCCCCC1,inactive
16,O=c1[nH][nH]c2c(N=Cc3ccccc3O)ccc(F)c12,"inconclusive: 44.7 µM [inhibitor, partial curve, poor fit]"
17,Cc1ccc(C(=O)c2c(NC(=O)c3ccccc3)sc(C)c2C)cc1,"inconclusive: 50.1 µM [inhibitor, partial curve, poor fit]"
18,Cc1ccc(-n2nnnc2SCC(=O)NC2CCCc3ccccc32)cc1 (configuration not stated),"inconclusive: 100 µM [inhibitor, partial curve, poor fit]"
19,COC(=O)Cn1c(C)nc([N+](=O)[O-])c1Br,inactive
20,COc1cccc(NC(=O)CCC(=O)Nc2cc(OC)c(NC(=O)c3cccs3)cc2OC)c1,inactive
21,CCOc1ccc2oc(C(=O)OCC(=O)N3CCCC(C)C3)c(C)c2c1 (configuration not stated),"inconclusive: 89.1 µM [inhibitor, single point]"
